The supplement of paper PMC3334620
In all, about 33,000 sequences were measured (“E-score (-0.5 to 0.5)”: median about -0.012, highest 2% from about 0.29 on). The list shows a part of the results.

target: T1, Ybr033w (UniProt P38073); experiment: PBM E-score (8-mer binding enrichment) (E-score (-0.5 to 0.5)); higher = stronger / more preferred TF binding; most listed sequences are background and not binding sites; settings: protein concentration: 200 nM; construct: GST-full length
T1 sequence: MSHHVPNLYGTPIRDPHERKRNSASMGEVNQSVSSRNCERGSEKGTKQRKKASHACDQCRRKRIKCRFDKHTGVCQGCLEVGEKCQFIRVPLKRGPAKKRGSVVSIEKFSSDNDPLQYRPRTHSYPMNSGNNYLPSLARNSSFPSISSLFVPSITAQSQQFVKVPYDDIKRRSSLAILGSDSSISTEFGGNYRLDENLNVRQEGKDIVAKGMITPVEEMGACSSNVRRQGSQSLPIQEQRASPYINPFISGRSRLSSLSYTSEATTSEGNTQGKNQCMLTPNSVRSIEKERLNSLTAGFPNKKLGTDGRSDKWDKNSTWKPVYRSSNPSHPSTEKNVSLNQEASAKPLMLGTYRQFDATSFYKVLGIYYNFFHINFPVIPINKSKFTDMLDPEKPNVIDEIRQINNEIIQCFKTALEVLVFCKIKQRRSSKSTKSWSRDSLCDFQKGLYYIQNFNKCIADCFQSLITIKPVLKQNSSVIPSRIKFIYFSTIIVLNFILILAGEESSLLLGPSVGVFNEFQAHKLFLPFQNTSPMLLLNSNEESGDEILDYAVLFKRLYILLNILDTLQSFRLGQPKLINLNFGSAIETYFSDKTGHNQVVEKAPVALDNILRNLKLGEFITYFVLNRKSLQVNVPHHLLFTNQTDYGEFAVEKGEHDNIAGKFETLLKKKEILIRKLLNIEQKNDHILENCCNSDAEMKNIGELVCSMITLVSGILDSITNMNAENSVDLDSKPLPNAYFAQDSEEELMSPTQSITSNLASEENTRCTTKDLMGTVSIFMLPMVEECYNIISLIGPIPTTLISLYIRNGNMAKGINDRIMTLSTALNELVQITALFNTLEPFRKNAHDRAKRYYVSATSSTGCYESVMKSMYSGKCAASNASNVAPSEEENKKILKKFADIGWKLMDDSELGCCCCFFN
How it was run: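 Using PURExpress in vitro transcription/translation, GST-tagged yeast transcription factors were made in full-length or DNA-binding-domain form. These were applied at about 100-200 nM to double-stranded universal all-10-mer Agilent arrays, and bound protein was detected with fluorescent anti-GST. Scans were normalised with masliner before the Universal PBM Analysis Suite assigned E-scores to ungapped eight-base words pooled with their reverse complements.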

Row | Sequence | PBM E-score
1 | GATCCACC | -0.128
2 | GAATTCTC | 0.0948
3 | AGAGCCCA | -0.155
4 | AGCTTATG | 0.0568
5 | CTGGCAAG | -0.103
6 | CAGTAGAG | -0.0987
7 | ATTATCTC | 0.256
8 | TAAGGAAA | 0.09
9 | AGAGCCGG | -0.169
10 | CGGTTCGA | -0.05
11 | ATTGTTAC | 0.248
12 | GGTGCAAC | -0.0953
13 | GAGTCGGA | 0.00892
14 | ACGCCGAG | -0.159
15 | AGCTCGCG | 0.00996
16 | CACGACCG | -0.325
17 | AGGACGCG | -0.202
18 | AAAAGACG | -0.0341
19 | ACGTCTGC | -0.185
20 | ACAAGTTA | 0.185
21 | CCCGCCAA | -0.13
22 | AGCCCAAA | 0.149
23 | GGCGCAAA | -0.192
24 | GCCAGAGC | -0.291
25 | CGGGCGGC | -0.359

Row | Sequence | PBM E-score
26 | ACAGCAGT | 0.00436
27 | AGAGGGAC | -0.141
28 | CGTGGGTC | -0.307
29 | AAACTCAA | 0.201
30 | CGAAGCGA | -0.0591
31 | ATGTTTCC | 0.0872
32 | AAGTGACT | 0.0868
33 | CCTGGTGA | -0.157
34 | CAATCTCC | 0.0409
35 | AACCCGAC | 0.056
36 | ACTCCACA | 0.089
37 | CTACTCAC | 0.0231
38 | ATTCGGGC | -0.0151
39 | AACGGTTG | 0.1
40 | GAGTATAA | 0.184
41 | TCCCTAAA | 0.0945
42 | ACGAATTA | 0.153
43 | AGACGGAA | 0.0963
44 | AAAGTGAA | 0.164
45 | ACCTGAAT | 0.239
46 | CCCAATGC | -0.107
47 | CCCTGGTC | -0.238
48 | GTAATTTA | 0.218
49 | GCGCGGAC | -0.126
50 | CGTTTTAA | 0.0098

Row | Sequence | PBM E-score
51 | ACCAAAGG | -0.149
52 | ATCGAACA | -0.0196
53 | CTAACTCA | 0.00653
54 | CTAGATTC | 0.0674
55 | GCGTTCGA | -0.0586
56 | ACATTTTA | 0.259
57 | CGGATGGC | -0.188
58 | TTCATAAA | 0.0849
59 | GGCGACGA | -0.169
60 | CGGGCTTC | -0.162
61 | ACAGGAAC | 0.152
62 | AAATGCGA | 0.185
63 | ACGTGGCA | -0.257
64 | ACCCACGG | -0.332
65 | AGGTTGTA | 0.132
66 | CCGCCTCG | -0.0432
67 | CAATTGTC | 0.0927
68 | ACACTACG | -0.0109
69 | ATCTCGGA | -0.047
70 | GCATTGTA | 0.103
71 | GACTTATA | 0.293
72 | AGTGTCGA | -0.093
73 | AATGTCGA | 0.197
74 | GGAAGAAC | 0.461
75 | AGGAGTCA | 0.0741

Row | Sequence | PBM E-score
76 | CGACGACA | 0.0999
77 | CGTTCGAG | -0.0445
78 | ACCACGGC | -0.109
79 | ACGACTAC | -0.141
80 | GCTGTGAC | -0.157
81 | ATCCTCCA | 0.0257
82 | TCTGTTCA | 0.0424
83 | CTATAGGA | -0.0273
84 | ACACCCCA | -0.16
85 | CAACAGTG | -0.0169
86 | CTACTACA | 0.215
87 | GAATTATA | 0.307
88 | CGATTGAG | -0.0284
89 | ACTATGAG | 0.024
90 | GAAATTTA | 0.231
91 | ATAAAAGG | -0.0365
92 | GGAAAGAC | -0.159
93 | TCTATTAA | 0.292
94 | AGTCCAAG | -0.0526
95 | GCAATACC | 0.00078
96 | GCGACCTA | -0.0108
97 | AGGACAAC | 0.0906
98 | GCTGGTGA | 0.0692
99 | CCTAAGCG | -0.164
100 | CCGTGCCA | -0.269

Row | Sequence | PBM E-score
101 | GGCAAAAC | -0.0116
102 | CACGAAAC | 0.106
103 | CACAGAAG | -0.0363
104 | ACGATATA | 0.0404
105 | CCTCCAAC | -0.0879
106 | TCATCCGA | 0.148
107 | CCGACGCG | -0.0554
108 | TAGCAGCA | -0.0377
109 | TAATGGGA | -0.0339
110 | ATATAAGC | -0.0175
111 | ACATGCTC | -0.0212
112 | CAACAGCG | -0.126
113 | CGGAGGAG | -0.268
114 | ACGCTCGG | 0.0921
115 | AACGCCCT | -0.131
116 | CTTAAGTC | -0.00164
117 | GAGGGACC | -0.361
118 | CAAATCGC | -0.165
119 | AAAACGAT | 0.162
120 | CAAGGAGA | -0.0772
121 | ATTATACA | 0.222
122 | AGCGACAT | -0.0513
123 | CCGAACCG | -0.217
124 | GCCGGCAC | -0.121
125 | GGATGCAC | -0.211

Row | Sequence | PBM E-score
126 | ATTCGAAA | 0.12
127 | AGTTGGTC | -0.066
128 | GGGGCCAC | -0.341
129 | ATGACAGA | 0.0497
130 | ATTACAGG | 0.326
131 | ACATATAA | 0.246
132 | AACTACGT | 0.0877
133 | GTTAGCCA | -0.0557
134 | CGCAATAA | 0.223
135 | CATAACGA | 0.0759
136 | TAGTGCAA | 0.197
137 | CTTGCGGA | -0.067
138 | ATGTGTGC | -0.11
139 | ACGTAACA | 0.0668
140 | ATCTAAGA | 0.132
141 | ACGGCCGT | -0.351
142 | AAGGGAAC | 0.0259
143 | GGACCGAA | 0.061
144 | CTGGTAGC | -0.129
145 | CATAGTCG | 0.0567
146 | ACCGGACG | -0.163
147 | ACCCTCCG | -0.283
148 | AAGAATGC | 0.142
149 | CGTATTGA | 0.0369
150 | AGCGCTTG | -0.103

Row | Sequence | PBM E-score
151 | GTGGTAAC | 0.0507
152 | ATATGGAA | 0.0484
153 | CGTCAAAA | 0.108
154 | AGTTCAGC | -0.229
155 | ATGAAGTA | 0.15
156 | TAAAAATA | 0.285
157 | AATCTCGT | 0.0658
158 | CCTCACAA | 0.0297
159 | GAATATAC | 0.141
160 | GTCGTCAA | -0.115
161 | CGATTGGA | 0.0255
162 | ACTATAAA | 0.226
163 | GGGCACTA | -0.18
164 | ATATCTTG | 0.288
165 | AATCGACG | 0.0656
166 | CAAGGACA | -0.126
167 | AACAACAG | 0.189
168 | ACAGAAAG | -0.0583
169 | AGAGTGTC | 0.214
170 | CTCAAAGA | 0.0377
171 | GTATAGTA | 0.173
172 | CAGGTCCC | -0.232
